# Some of the results follow. The full chains were built here from the parent and the listed change. Values near 0.05 are background.
# B1: TEV protease; numbered along this chain (parent)
# chain: MGESLFKGPRDYNPISSSICHLTNESDGHTTSLYGIGFGPFIITNKHLFRRNNGTLVVQSLHGVFKVKDTTTLQQHLVDGRDMIIIRMPKDFPPFPQKLKFREPQREERICLVTTNFQTKSMSSMVSDTSCTFPSGDGIFWKHWIQTKDGQCGSPLVSTRDGFIVGIHSASNFTNTNNYFTSVPKNFMELLTNQEAQQWVSGWRLNADSVLWGGHKVFMVKPEEPFQPVKEATQL
# Variants of: B1
# Assay: raw area under fraction-flipped curve 0-4 h after induction (AUC4h, not background-subtracted), DNA-recorder readout of cleavage of the substrate (dimensionless); higher = more cleavage of the substrate by the protease variant
# Settings: temperature: 34 °C; time window: 0-4 h after rhamnose induction
# Method: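 In vivo DNA recorder in E. coli TOP10(DE3) ΔrhaA at 34 °C. Each TEVp single-site mutant (parent TEVp 0) is paired with a single-site variant of the 7-mer TEVs (canonical ENLYFQ|S). The substrate sits between flexible linkers in a Bxb1-sfGFP-TEVs-SsrA fusion, so cleavage stabilises Bxb1 and speeds flipping of a recombination array, read by NGS. The value is the raw area under the fraction-flipped curve over 0-4 h after rhamnose induction (AUC4h), with ≥20 reads per time point. It is not background-subtracted; inactive controls average about 0.047.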
# 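Note: Bxb1 expression induced with 0.2% (w/v) L-rhamnose at OD600 near 0.5, cultures sampled hourly, flipped fraction per protease–substrate barcode pair counted by paired-end Illumina sequencing.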
Variant,area with substrate ENLYFAS,area with substrate ENLYFDS,area with substrate ENLYFFS,area with substrate ENLYFIS,area with substrate ENLYFKS,area with substrate ENLYFLS,area with substrate ENLYFMS,area with substrate ENLYFPS,area with substrate ENLYFSS,area with substrate ENLYFTS,area with substrate ENLYFVS,area with substrate ENLYFCS,area with substrate ENLYFES,area with substrate ENLYFGS,area with substrate ENLYFHS,area with substrate ENLYFNS,area with substrate ENLYFRS,area with substrate ENLYFWS,area with substrate ENLYFYS
MGESYFKGPRDYNPISSSICHLTNESDGHTTSLYGIGFGPFIITNKHLFRRNNGTLVVQSLHGVFKVKDTTTLQQHLVDGRDMIIIRMPKDFPPFPQKLKFREPQREERICLVTTNFQTKSMSSMVSDTSCTFPSGDGIFWKHWIQTKDGQCGSPLVSTRDGFIVGIHSASNFTNTNNYFTSVPKNFMELLTNQEAQQWVSGWRLNADSVLWGGHKVFMVKPEEPFQPVKEATQL [L5Y],0.0574,0.0462,0.0651,0.0623,0.0622,0.0521,0.0655,0.0644,0.0536,0.0621,0.0364,,,,,,,,
MGESLFKGPRDYNVISSSICHLTNESDGHTTSLYGIGFGPFIITNKHLFRRNNGTLVVQSLHGVFKVKDTTTLQQHLVDGRDMIIIRMPKDFPPFPQKLKFREPQREERICLVTTNFQTKSMSSMVSDTSCTFPSGDGIFWKHWIQTKDGQCGSPLVSTRDGFIVGIHSASNFTNTNNYFTSVPKNFMELLTNQEAQQWVSGWRLNADSVLWGGHKVFMVKPEEPFQPVKEATQL [P14V],0.0666,0.0537,0.0642,0.0579,0.0557,,0.0714,0.0679,0.0634,0.0615,0.0541,0.0738,0.0618,0.0569,0.066,0.0599,0.0705,0.0551,0.045
MGESLFKGPRDYNPISSSICHLTNESDGHTTSLYGIGFGPFIITNKHLFRRNNGTLVVQSLHGVFKVKDTTTLQQHLVDGRDMIIIRMPKDFPPFPQYLKFREPQREERICLVTTNFQTKSMSSMVSDTSCTFPSGDGIFWKHWIQTKDGQCGSPLVSTRDGFIVGIHSASNFTNTNNYFTSVPKNFMELLTNQEAQQWVSGWRLNADSVLWGGHKVFMVKPEEPFQPVKEATQL [K98Y],0.0619,0.0575,,0.0547,0.0808,0.0619,0.0795,0.0609,0.0732,0.056,0.065,0.0581,0.0652,0.0602,0.0709,0.0612,0.0669,,0.0657
MGESLFKGPRDYNPISSSICHLTNESDGHTTSLYGIGFGPFIITNKHLFRRNNGTLVVQSLHGVFKVKDTTTLQQHLVDGRDMIIIRMPKDFPPFPQKLKFREPQREERICLVTTNFQTKSMSSMVSDTSCTFPSGDGIFWKHWIQTKDGQCGSPLVSTRDGFIVGIHSASNFTNTNNYFTSVPKNFMELLTNQEAQQWVSGWRLNADSVLWGGHKVAMVKPEEPFQPVKEATQL [F218A],0.0584,,0.0683,0.0474,,,,0.0673,,,0.0518,0.0589,,0.0569,0.0488,0.0688,,0.0419,0.0482
MGESLFKGPRDYNPISSSICHLTNESDGHTTSLYGIGFGPFIITNKHLFRRNNGTLVVQSLHGVFKVKDTTTLQQHLVDGRDMIIIRMPKDFPPFPQKLKFREPQREERICLVTTNFQTKSMSSMVSDTSCTFPSGDGIFWKHWIQTKDGQCGSPLVSTRDGFIVGIHSASNFTNTNNYFTSVPKNFMELLTNQEAQQWVSGWRLNADSVLWGGHKVFMVKPEEPSQPVKEATQL [F226S],0.0579,0.065,0.059,0.0542,0.0619,,0.0634,0.0577,0.0574,,0.0609,0.0537,,,0.0589,,0.0518,0.0536,0.0571
MGESLFKGPRDYNPISSSICHLTNESDGHTTSLYGIGFGPFIITNKHLFRRNNGTLVVQSLHGVFKVKDTTTLQQHLVDGRDMIIIRMPKDFPPFPQKLKFRFPQREERICLVTTNFQTKSMSSMVSDTSCTFPSGDGIFWKHWIQTKDGQCGSPLVSTRDGFIVGIHSASNFTNTNNYFTSVPKNFMELLTNQEAQQWVSGWRLNADSVLWGGHKVFMVKPEEPFQPVKEATQL [E103F],0.0645,0.0701,,,,0.0907,,0.0723,,,,0.0591,0.0795,,,,,,
MGESLFKGPRDYNPISSSICHLTNESDGHTTSLYGIGFGPFIITNKHLFRRNNGTLVVQSLHGVFKVKDTTTLQQHLVDGRDMIIIRMPKDFPPFPQKLKFREPQREERICLVTTMFQTKSMSSMVSDTSCTFPSGDGIFWKHWIQTKDGQCGSPLVSTRDGFIVGIHSASNFTNTNNYFTSVPKNFMELLTNQEAQQWVSGWRLNADSVLWGGHKVFMVKPEEPFQPVKEATQL [N116M],0.0561,,0.0635,0.0617,0.0538,,,0.0603,,,,,,0.0558,,,,0.0575,0.0521
MGESLFKGPRDYNPISSSICHLTNESDGHTTSLYGIGFGPFIITNKHLFRRNNGTLVVQSLHGVFKVKDTTTLQQHLVDGRDMIIIRMPKDFPPFPQKLKFREPQREERICLVTTNFQTKSMSSMVSDTSCTFPSGDGIFWKHWIQTKDGQCGSRLVSTRDGFIVGIHSASNFTNTNNYFTSVPKNFMELLTNQEAQQWVSGWRLNADSVLWGGHKVFMVKPEEPFQPVKEATQL [P155R],0.0478,,0.0529,0.0498,,,0.0618,0.0631,,0.0497,0.0479,0.0466,0.0425,,0.0505,0.0556,0.049,,0.0521
MGESLFKGPRDYNPISSSICHLTNESDGHTTSLYGIGFGPFIITNKHLFRRNNGTLVVQSLHGVFKVKDTTTLQQHLVDGRDMIIIRMPKDFPPFPQKLKFREPQREHRICLVTTNFQTKSMSSMVSDTSCTFPSGDGIFWKHWIQTKDGQCGSPLVSTRDGFIVGIHSASNFTNTNNYFTSVPKNFMELLTNQEAQQWVSGWRLNADSVLWGGHKVFMVKPEEPFQPVKEATQL [E108H],0.0568,0.0563,0.0636,0.0504,0.0449,0.0484,0.0496,0.0604,0.0659,0.0504,,0.0404,0.0521,0.0532,0.0552,0.0495,0.0536,,0.0428
MGESLFKGPRDYNPISSSICHLTNESDGHTTSLYGIGFGPFIITNKHLFRRNNGTLVVQSLHGVFKVKDTTTLQQHLVDGRDMIIIRMPKDFPPFPQKLKFREPQREERICLVTDNFQTKSMSSMVSDTSCTFPSGDGIFWKHWIQTKDGQCGSPLVSTRDGFIVGIHSASNFTNTNNYFTSVPKNFMELLTNQEAQQWVSGWRLNADSVLWGGHKVFMVKPEEPFQPVKEATQL [T115D],0.0588,0.0621,,0.0516,0.064,,0.0737,0.0586,,,,,0.0613,,,0.0995,0.0676,,
MGESLFKGPRDYNPISSSICHLTNEMDGHTTSLYGIGFGPFIITNKHLFRRNNGTLVVQSLHGVFKVKDTTTLQQHLVDGRDMIIIRMPKDFPPFPQKLKFREPQREERICLVTTNFQTKSMSSMVSDTSCTFPSGDGIFWKHWIQTKDGQCGSPLVSTRDGFIVGIHSASNFTNTNNYFTSVPKNFMELLTNQEAQQWVSGWRLNADSVLWGGHKVFMVKPEEPFQPVKEATQL [S26M],0.0668,0.0526,0.063,0.0562,0.0719,,0.0685,0.0637,0.056,0.0666,0.0635,0.0598,0.049,,0.0593,0.0634,0.0679,0.0594,0.0511
MGESLFKGPRDYNPISSSICHLTNESDGHTTSLYGIGFGPFIITNKHLFRRNNGTLVVQSLHGVFKVKDTTTLQQHLVDGRDMIIIRMPKDFPPFPQKLKFREPQREERICLVTTNFQTKSMSSMVSDTSCTFPSGDGIFWKHWIQTKDGQCGSPLVSTRDGFIVGIHQASNFTNTNNYFTSVPKNFMELLTNQEAQQWVSGWRLNADSVLWGGHKVFMVKPEEPFQPVKEATQL [S169Q],0.0532,0.0705,0.0711,0.053,0.0581,0.0573,0.0548,0.0594,0.0583,0.0539,0.0543,,0.051,0.0822,0.0572,0.0568,0.0592,0.058,0.0068
MGESLFKGPRDYNPISSSICHLTNESDGHTTSLYGIGFGPFIITNKHLFRRNNGTLVVQSLHGVFKVKDTTTLQQHLVDGRDMIIIRMPKDFPPFPQKLKFREPQREERICLVTTNFQTKSMSSMVSDTSCTFPSGDGIFWKHWIQTKDGQCGSPLVSTRDGFIVGIHSASNFTNTNNYFTSVPKNFMELLTNQEAQQWVVGWRLNADSVLWGGHKVFMVKPEEPFQPVKEATQL [S201V],0.0607,0.0462,0.0617,0.0358,0.0611,,0.0668,,0.046,0.0623,,,0.0816,,,0.0559,,,
MGESLFKGPRDYNPISSSICHLTNESDGHTTSLYGIGFGPFIITNKHLFRRNNGTLVVQSLHGVFKVKDTTTLQQHLVDGRDMIIIRMPKDFPPFPQKLKFREPQREERICLVTTNFQTKSMSSMVSDTSCTFPSGDGIFWKHWIQTKDGQCGSPLVSTRDGFIVGIHSASNWTNTNNYFTSVPKNFMELLTNQEAQQWVSGWRLNADSVLWGGHKVFMVKPEEPFQPVKEATQL [F173W],0.0568,0.0562,0.0906,0.056,0.0686,0.0599,0.0733,0.0635,,0.0638,0.0589,0.0627,,0.0717,0.0684,,0.0596,0.0144,0.0526
MGESLFKGPRDYNPISSSICHLTNESDVHTTSLYGIGFGPFIITNKHLFRRNNGTLVVQSLHGVFKVKDTTTLQQHLVDGRDMIIIRMPKDFPPFPQKLKFREPQREERICLVTTNFQTKSMSSMVSDTSCTFPSGDGIFWKHWIQTKDGQCGSPLVSTRDGFIVGIHSASNFTNTNNYFTSVPKNFMELLTNQEAQQWVSGWRLNADSVLWGGHKVFMVKPEEPFQPVKEATQL [G28V],0.0558,0.058,0.0633,0.0608,,,0.0686,0.0629,0.0532,0.0738,0.0606,0.0513,,,0.041,0.0539,0.0534,,
MGESLFKGPRDYNPISSSICHLTNESDGHTTSLYGIGFGPFIITNKHLFRRNNGTLVVQSLHGVFKVKDTTTLQQHLVDGRDMIIIRMPKDFPPFPQKLKFREPQREERICLVTTNFQTKSMSSMVSDTSCTFPSGDGIFWKHWIQTKDGQCGSPLVSTRDGFIVGIHSASNFTNTNNYFTSVPKNFMELLTNQEANQWVSGWRLNADSVLWGGHKVFMVKPEEPFQPVKEATQL [Q197N],0.0618,,0.0743,0.0413,,,,,,,,0.0315,,,,0.0574,,0.0734,
MGESLFKGPRDYNPISSSICHLTNESDGHTTSLYGIGFGPFIITNKHLFRRNNGTLVVQSLHGVFKVKDTTTLQQHLVDGRDMIIIRMPKDFPPFPQKLKFREPQREERICLVTTNFQTKSMSSMVSDTSCTFPSGDGIFWKHWIQTKDGQCGSPLVSTRDGFIVGIHSASNFTNTNNYFTSVPKNFMELLTNQEAEQWVSGWRLNADSVLWGGHKVFMVKPEEPFQPVKEATQL [Q197E],0.0665,0.0459,0.0616,0.0571,0.0724,0.0357,,0.0654,0.0617,0.0474,0.05,,0.0722,,,0.0606,0.0504,,
MGESLFKGPRDYNPISSSICHLTNESDGHTTSLYGIGFGPFIITNKHLFRRNNGTLVVQSLHGVFKVKDTTTLQQHLVDGRDMIIIRMPKDFPPFPQKLKFREPQREERICLVTTNFQTKSMSSMVSDTSCTFPSGDGIFWKHWIQTDDGQCGSPLVSTRDGFIVGIHSASNFTNTNNYFTSVPKNFMELLTNQEAQQWVSGWRLNADSVLWGGHKVFMVKPEEPFQPVKEATQL [K148D],0.0549,0.0612,0.0967,0.0491,0.0767,0.0549,0.0627,0.0753,0.0524,,0.0649,,,,,0.0561,,0.0666,0.0726
